The values below come from the supplement of paper PMC8728848.

This is one part of the list.

What all share (assay): glycan array binding signal (z-score within array); higher = stronger binding
Holding throughout (conditions): glycan notation: IUPAC condensed, linker removed

Assay [1] deals with GlcNAc(b1-2)[GlcNAc(b1-6)]Man(a1-6)[GlcNAc(b1-4)][GlcNAc(b1-2)Man(a1-3)]Man(b1-4)GlcNAc(b1-4)GlcNAc. The procedure, abridged: (§1)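 Columns mapping to the same glycan were averaged after glycan names were converted to IUPAC-condensed notation. The data come from 3228 arrays in the Consortium for Functional Glycomics database, limited to those with an available protein sequence. Binding is reported as a within-array Z-score averaged across arrays of one protein sequence and across linkers.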

Assay [2] addresses GlcNAc(b1-3)Fuc. The procedure, abridged: as §1
Assay [3] concerns the target GlcNAc(b1-3)Gal. The gist of the method:
as §1

Assay [4] has as its target GlcNAc(b1-3)Gal(b1-3)GalNAc. The gist of the method: as §1
Assay [5] addresses GlcNAc(b1-3)Gal(b1-4)Glc. The gist of the method: as §1
The target of assay [6] is GlcNAc(b1-3)Gal(b1-4)GlcNAc. The procedure, abridged:
as §1

The target of assay [7] is GlcNAc(b1-3)Gal(b1-4)GlcNAc(b1-2)Man(a1-3)[GlcNAc(b1-3)Gal(b1-4)GlcNAc(b1-2)Man(a1-6)]Man(b1-4)GlcNAc(b1-4)GlcNAc. The procedure, abridged:
as §1

Assay [8] deals with GlcNAc(b1-3)Gal(b1-4)GlcNAc(b1-2)Man(a1-3)[GlcNAc(b1-3)Gal(b1-4)GlcNAc(b1-2)Man(a1-6)]Man(b1-4)GlcNAc(b1-4)[Fuc(a1-6)]GlcNAc. The gist of the method: as §1
Assay [9] has as its target GlcNAc(b1-3)Gal(b1-4)GlcNAc(b1-2)[GlcNAc(b1-3)Gal(b1-4)GlcNAc(b1-6)]Man(a1-6)[GlcNAc(b1-3)Gal(b1-4)GlcNAc(b1-2)Man(a1-3)]Man(b1-4)GlcNAc(b1-4)GlcNAc. The gist of the method: as §1
For assay [10], the target named is GlcNAc(b1-3)Gal(b1-4)GlcNAc(b1-3)Gal(b1-4)GlcNAc. The procedure, abridged:
as §1

Assay [11] has as its target GlcNAc(b1-3)Gal(b1-4)GlcNAc(b1-3)Gal(b1-4)GlcNAc(b1-2)Man(a1-3)[GlcNAc(b1-3)Gal(b1-4)GlcNAc(b1-3)Gal(b1-4)GlcNAc(b1-2)Man(a1-6)]Man(b1-4)GlcNAc(b1-4)GlcNAc. The gist of the method:
as §1

Assay [12] has as its target GlcNAc(b1-3)Gal(b1-4)GlcNAc(b1-3)Gal(b1-4)GlcNAc(b1-2)Man(a1-3)[GlcNAc(b1-3)Gal(b1-4)GlcNAc(b1-3)Gal(b1-4)GlcNAc(b1-2)Man(a1-6)]Man(b1-4)GlcNAc(b1-4)[Fuc(a1-6)]GlcNAc. The procedure, abridged: as §1
The target of assay [13] is GlcNAc(b1-3)Gal(b1-4)GlcNAc(b1-3)Gal(b1-4)GlcNAc(b1-2)[GlcNAc(b1-3)Gal(b1-4)GlcNAc(b1-3)Gal(b1-4)GlcNAc(b1-6)]Man(a1-6)[GlcNAc(b1-3)Gal(b1-4)GlcNAc(b1-3)Gal(b1-4)GlcNAc(b1-2)Man(a1-3)]Man(b1-4)GlcNAc(b1-4)[Fuc(a1-6)]GlcNAc. The gist of the method: as §1
The target of assay [14] is GlcNAc(b1-3)Gal(b1-4)GlcNAc(b1-3)Gal(b1-4)GlcNAc(b1-3)Gal(b1-4)GlcNAc(b1-2)Man(a1-3)[GlcNAc(b1-3)Gal(b1-4)GlcNAc(b1-3)Gal(b1-4)GlcNAc(b1-3)Gal(b1-4)GlcNAc(b1-2)Man(a1-6)]Man(b1-4)GlcNAc(b1-4)GlcNAc. The procedure, abridged:
as §1

The target in assay [15] is GlcNAc(b1-3)Gal(b1-4)GlcNAc(b1-3)Gal(b1-4)GlcNAc(b1-3)Gal(b1-4)GlcNAc(b1-2)Man(a1-3)[GlcNAc(b1-3)Gal(b1-4)GlcNAc(b1-3)Gal(b1-4)GlcNAc(b1-3)Gal(b1-4)GlcNAc(b1-2)Man(a1-6)]Man(b1-4)GlcNAc(b1-4)[Fuc(a1-6)]GlcNAc. The procedure, abridged:
as §1

Assay [16] concerns the target GlcNAc(b1-3)Gal(b1-4)GlcNAc(b1-3)Gal(b1-4)GlcNAc(b1-3)Gal(b1-4)GlcNAc(b1-2)[GlcNAc(b1-3)Gal(b1-4)GlcNAc(b1-3)Gal(b1-4)GlcNAc(b1-3)Gal(b1-4)GlcNAc(b1-6)]Man(a1-6)[GlcNAc(b1-3)Gal(b1-4)GlcNAc(b1-3)Gal(b1-4)GlcNAc(b1-3)Gal(b1-4)GlcNAc(b1-2)Man(a1-3)]Man(b1-4)GlcNAc(b1-4)[Fuc(a1-6)]GlcNAc. The gist of the method:
as §1

Assay [17] addresses GlcNAc(b1-3)Gal(b1-4)GlcNAc(b1-3)Gal(b1-4)GlcNAc(b1-3)Gal(b1-4)GlcNAc(b1-3)Gal(b1-4)GlcNAc(b1-2)Man(a1-3)[GlcNAc(b1-3)Gal(b1-4)GlcNAc(b1-3)Gal(b1-4)GlcNAc(b1-3)Gal(b1-4)GlcNAc(b1-3)Gal(b1-4)GlcNAc(b1-2)Man(a1-6)]Man(b1-4)GlcNAc(b1-4)GlcNAc. The gist of the method:
as §1

Assay [18] has as its target GlcNAc(b1-3)Gal(b1-4)GlcNAc(b1-3)Gal(b1-4)GlcNAc(b1-3)Gal(b1-4)GlcNAc(b1-3)Gal(b1-4)GlcNAc(b1-2)Man(a1-3)[GlcNAc(b1-3)Gal(b1-4)GlcNAc(b1-3)Gal(b1-4)GlcNAc(b1-3)Gal(b1-4)GlcNAc(b1-3)Gal(b1-4)GlcNAc(b1-2)Man(a1-6)]Man(b1-4)GlcNAc(b1-4)[Fuc(a1-6)]GlcNAc. The gist of the method:
as §1

Assay [19] concerns the target GlcNAc(b1-3)Gal(b1-4)GlcNAc(b1-3)Gal(b1-4)GlcNAc(b1-3)Gal(b1-4)GlcNAc(b1-3)Gal(b1-4)GlcNAc(b1-2)[GlcNAc(b1-3)Gal(b1-4)GlcNAc(b1-3)Gal(b1-4)GlcNAc(b1-3)Gal(b1-4)GlcNAc(b1-3)Gal(b1-4)GlcNAc(b1-6)]Man(a1-6)[GlcNAc(b1-3)Gal(b1-4)GlcNAc(b1-3)Gal(b1-4)GlcNAc(b1-3)Gal(b1-4)GlcNAc(b1-3)Gal(b1-4)GlcNAc(b1-2)Man(a1-3)]Man(b1-4)GlcNAc(b1-4)[Fuc(a1-6)]GlcNAc. The gist of the method:
as §1

B1: PX14343H-pdi-506-26-506 (Parabacteroides distasonis) (protein)
chain: QPTGTMTTDSKLTSKESALALTNSAYLKNTVFNKMTPGWGCNTILLLEYMTGKATSENSQSNYKDFQDLLVSDRSLYIEDWWQDCYAGIANCNLALQKLGEFENLDASLVNGYMAEVKFMRALYYFYLVRIFGDVPKITTVQSELGELQVSRAPVKEIYDEIIIPDLLEAEQSDLAFSDHTGRVSMGAVKALLADVYLTYAGYPLQGGKSYYAESAKRSLEVIKSNEYTLFTDYESLRLPSQNNKGEFIYQVQFSLNKRHNESVRIFLPSRSGISAYDLEYGSLIPTKEFVESFEKGDKRTEEKQYFFTNYKGHPSKFSPGAAELEFMDLNGYYIYKFFDQVAVDNTAKSDLNWSVYRYTDVLLMYAEAQVNADGTPNQQSIDIVNQIRGRAGLAPFKQTNASAFLEEVWDQRYFDLCYENKMWFDMLRTRKIRDDKSGEYVDFIGYKTNWGKVYTETQLLFPIPLSERQANPNLTQNQGY
With B1, the “glycan array binding signal (z-score)” value was -0.488 in assay [1]; -0.234 in [2]; -0.446 in assay [3]; -0.363 in [4]; -0.525 in assay [5]; -0.467 in [6]. The “glycan array binding signal (z-score)” value in assay [7] was -0.309; in assay [8] it was -0.069; in assay [9], 0.616; in assay [10] it was -0.418; in assay [11], -0.068; in [12] it was 0.283. The “glycan array binding signal (z-score)” value is -0.099 in assay [13]; -0.249 in assay [14]; 0.224 in assay [15]; 0.039 in [16]; -0.084 in assay [17]; -0.36 in assay [18]. Moreover, the “glycan array binding signal (z-score)” value in assay [19] is 2.61.
